Assay results from ChEMBL document CHEMBL1201862, “PubChem BioAssay data set” (2004).
The whole screen tested about 57,000 sequences, of which about 2,700 (4.7%) were called active. No stated cut-off is given here; in the data, active = GI50 up to about 1.1 µM and inactive = higher. Only a sample is shown. Potency and affinity values are given separately.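 Exposure lasted 48 hours, with cells grown in 96-well plates and compounds tested at five concentrations. GI50 is the concentration that inhibits growth by half.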

Test system: NCI-H322M
Assay: NCI tumour cell line growth inhibition, 48 h

“mu-(1,7-nanodiamine-N,N')bis-(cis-aminedichloroplatimum (II)), CHEMBL2146215” was tested. Which GI50 did it give?
The GI50 was > 100 µM.

“[Bis(aminomethyl)tetramethylenesilane]tetrachloropaltinum(IV), CHEMBL2146189” was tested. Which GI50 did it give?
The GI50 was 20.6 µM.

Which GI50 does the source give for “[Bis(aminomethyl)diethylsilane]tetrachloroplatinum(IV), CHEMBL2146203” here?
Its GI50 is 21.5 µM.

With “[Bis(aminomethyl)ethylmethylsilane]tetrachloroplatinum(IV), CHEMBL2146192” as the substance, how does the GI50 read?
Its GI50 is 12.6 µM.

“cis-Bis[[(trimethylsilyl)methyl]amino]tetrachloroplatinum(IV), CHEMBL2146191” was tested. Which GI50 did it give?
Its GI50 is 15.1 µM.

How did the GI50 turn out when “[Bis(aminomethyl)pentamethylenesilane]tetrachloropaltinum(IV), CHEMBL2146204” was run?
The GI50 was 9.75 µM.

For “[Bis(aminomethyl)pentamethylenesilane]dichloropaltinum(II), CHEMBL2146202”, which GI50 is on record?
The GI50 was 4.37 µM.

With “[Bis(aminomethyl)dimethylsilane]dichloroplatinum (II), CHEMBL2146201” as the substance, how does the GI50 read?
Its GI50 is 62.8 µM.

Which GI50 does the source give for “[Bis(aminomethyl)dimethylsilane]tetrachloroplatinum(IV), CHEMBL2146190” here?
Its GI50 is 15.8 µM.

For CISPLATIN, CHEMBL11359, which GI50 is on record?
Its GI50 is 6.32 µM.

For “[Bis(aminomethyl)tetramethylenesilane]dichloropaltinum(II), CHEMBL2146205”, which GI50 is on record?
The GI50 was 80.9 µM.
